Structures can show the parent of a compound that is named as a salt. ± gives the standard deviation of the averaged measurements. In all, about 1,900 compounds were measured (“normalised cell viability (NPI; 0 = phenylarsine oxide control, 1 = DMSO control)”: median about 1, lowest 2% from about 0.039 on). The list shows a part of the results.
Test system: NCI-H1944
Assay: normalised cell viability (NPI; 0 = phenylarsine oxide control, 1 = DMSO control) (fraction of DMSO control); NCI-H1944 is a non-small cell lung cancer line; higher = more viable cells (less compound toxicity)
Conditions: 6 days
[1] = glucocorticoid arm: hydrocortisone 2.75 uM co-treatment, compound 1 µM
[2] = glucocorticoid arm: hydrocortisone 2.75 uM co-treatment, compound 5 µM
[3] = glucocorticoid arm: hydrocortisone 2.75 uM pre-treated 2 days and continued, compound 1 µM
[4] = glucocorticoid arm: hydrocortisone 2.75 uM pre-treated 2 days and continued, compound 5 µM
[5] = glucocorticoid arm: vehicle, compound 1 µM
[6] = glucocorticoid arm: vehicle, compound 5 µM
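Further: CTB read-out in 384-well plates, mean of triplicate wells, normalised per plate against 1 µM phenylarsine oxide and 0.1% DMSO, compounds added 24 h after seeding.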

SMILES	normalised cell viability [1]	normalised cell viability [2]	normalised cell viability [3]	normalised cell viability [4]	normalised cell viability [5]	normalised cell viability [6]
CC(C)NCC(O)COc1cccc2ccccc12 (racemic) [(±)-Propranolol hydrochloride]	1.017 ± 0.0058	1.02 ± 0.026	1.01 ± 0.011	1.08 ± 0.09	0.9967 ± 0.0049	1 ± 0.017
c1ccc2c(c1)CCCC2C1=NCCN1 (configuration not stated) [Tetrahydrozoline hydrochloride]	1 ± 0.0095	0.9983 ± 0.0015	0.898 ± 0.18	0.996 ± 0.012	0.997 ± 0.001	1 ± 0.011
c1ccc2c(c1)CCCC2C1=NCCN1 (configuration not stated) [Tetrahydrozoline HCl]	1.04 ± 0.015	1.06 ± 0.015	1.03 ± 0.023	1.07 ± 0.011	1.003 ± 0.0064	1.003 ± 0.0058
CNc1ncnc2c1ncn2[C@@H]1O[C@H](CO)[C@@H](O)[C@H]1O [N6-Methyladenosine]	1	0.998 ± 0.029	1.001 ± 0.009	0.949 ± 0.039	1.002 ± 0.0072	1 ± 0.015
N[C@@H](CC(=O)O)C(=O)O [L-Aspartic acid]	0.992 ± 0.007	1.006 ± 0.0063	0.996 ± 0.013	0.999 ± 0.03	0.993 ± 0.016	0.991 ± 0.0044
CN=c1nc(-c2ccccc2)n(-c2ccccc2)s1	1.003 ± 0.0058	1.04 ± 0.031	0.832 ± 0.33	1.02 ± 0.01	1.01	1.017 ± 0.0058
O=C(NOCC1CC1)c1ccc(F)c(F)c1Nc1ccc(I)cc1Cl	0.7163 ± 0.0057	0.625 ± 0.027	0.841 ± 0.011	0.796 ± 0.02	0.844 ± 0.038	0.779 ± 0.051
Nc1nc(F)nc2c1ncn2[C@@H]1O[C@H](COP(=O)(O)O)[C@@H](O)[C@@H]1O [Fludarabine; Fludarabine phosphate]	1.02 ± 0.011	1.07 ± 0.023	1.027 ± 0.0058	1.03 ± 0.01	0.988 ± 0.004	0.739 ± 0.013
COc1[nH]c2ccc(F)cc2c1C(=O)OCC1CCN(CCNS(C)(=O)=O)CC1.NS(=O)(=O)O	1.023 ± 0.0058	0.955 ± 0.011	1.017 ± 0.0058	0.989 ± 0.021	0.9993 ± 0.0011	1.007 ± 0.0058
CCCCN1CCC(n2c(=O)[nH]c3ccccc32)CC1 [NS 521 oxalate]	1.02 ± 0.011	1.03 ± 0.046	1.03 ± 0.011	1.006 ± 0.0075	1.03 ± 0.01	1.03 ± 0.015
CC1(C)CCC(c2ccc(Cl)cc2)=C(CN2CCN(c3ccc(C(=O)NS(=O)(=O)c4ccc(N[C@H](CCN5CCOCC5)CSc5ccccc5)c(S(=O)(=O)C(F)(F)F)c4)cc3)CC2)C1 [ABT-263 (Navitoclax)]	0.991 ± 0.025	1.01 ± 0.022	0.998 ± 0.03	1.023 ± 0.0058	1.001 ± 0.0081	1.003 ± 0.0058
COc1ccc(CC(C)NCC(O)c2ccc(O)c(NC=O)c2)cc1 (configuration not stated) [Formoterol Hemifumarate]	1.02 ± 0.021	0.959 ± 0.019	1.037 ± 0.0058	0.997 ± 0.025	1.013 ± 0.0058	1.01
COc1ccc(CC(C)NCC(O)c2ccc(O)c(NC=O)c2)cc1 (configuration not stated) [Formoterol fumarate dihydrate]	1.003 ± 0.0064	0.9893 ± 0.0064	1.006 ± 0.0075	0.962 ± 0.019	0.9977 ± 0.0025	0.9973 ± 0.0031
CC(C)C[C@H](NC(=O)[C@H](Cc1ccccc1)NC(=O)c1cnccn1)B(O)O [Bortezomib (Velcade)]	0.352 ± 0.024	0.0578 ± 0.0037	0.677 ± 0.016	0.351 ± 0.042	0.00826 ± 0.0011	0.000986 ± 0.0007
CC(C)C[C@H](NC(=O)[C@H](Cc1ccccc1)NC(=O)c1cnccn1)B(O)O [Bortezomib]	0.281 ± 0.011	0.0356 ± 0.0084	0.669 ± 0.035	0.28 ± 0.054	0.00407 ± 0.00064	0.00157 ± 0.00063
O=C(OCCN1CCOCC1)C1(c2ccccc2)CCCCC1	1.01 ± 0.011	1.03 ± 0.088	1.02 ± 0.015	0.891 ± 0.21	1.017 ± 0.0058	1.03 ± 0.011
CS(=O)(=O)c1ccc(C(=O)Nc2ccc(Cl)c(-c3ccccn3)c2)c(Cl)c1 [Vismodegib]	1.02 ± 0.015	1.01 ± 0.028	1.03	1.023 ± 0.0058	1.007 ± 0.0058	1.01 ± 0.01
CS(=O)(=O)c1ccc(C(=O)Nc2ccc(Cl)c(-c3ccccn3)c2)c(Cl)c1 [Vismodegib (GDC-0449)]	1.01 ± 0.026	1.013 ± 0.0058	1.02 ± 0.011	1.01 ± 0.017	1.01 ± 0.01	1.01 ± 0.01
O=C1C(c2c(O)[nH]c3ccccc23)=Nc2ccccc21 [Indirubin]	1.117 ± 0.0058	1.19 ± 0.015	1.1 ± 0.01	1.12 ± 0.036	1.037 ± 0.0058	1.05 ± 0.011
CNc1nc(-c2ccc3c(N)n[nH]c3c2)cc(N2C[C@@H](C(=O)NC3CCCCC3)CC[C@H]2C)n1	0.835 ± 0.023	0.759 ± 0.029	0.8143 ± 0.0061	0.731 ± 0.049	0.916 ± 0.034	0.737 ± 0.03
CN1CCN(S(=O)(=O)c2ccc(-c3cnc(N)c(C(=O)Nc4cccnc4)n3)cc2)CC1	1.113 ± 0.011	1.2 ± 0.015	1.1 ± 0.011	1.1 ± 0.021	0.743 ± 0.0076	0.959 ± 0.021
O=C(O)C1CCCNC1 (racemic) [(±)-Nipecotic acid]	0.9947 ± 0.005	1.01 ± 0.014	1.02 ± 0.059	1.02 ± 0.021	1 ± 0.01	1.013 ± 0.0058
O=C(Nc1cc(C(F)(F)F)cc(C(F)(F)F)c1)c1cc(Cl)ccc1O	1.02 ± 0.041	1.07 ± 0.025	1.01 ± 0.011	1.04 ± 0.015	1.004 ± 0.0098	1.02 ± 0.015
COc1cc2nc(N3CCN(C(=O)OCc4ccccc4)[C@H](C(=O)NC(C)(C)C)C3)nc(N)c2cc1OC	1.017 ± 0.0058	1 ± 0.018	1.03 ± 0.031	1.037 ± 0.0058	1.002 ± 0.0072	1.017 ± 0.0058
COCCCC/C(=N\OCCN)c1ccc(C(F)(F)F)cc1 [Fluvoxamine maleate]	1.01					
COC(=O)[C@H](c1ccccc1Cl)N1CCc2sccc2C1 [Clopidogrel]	1.01 ± 0.012	0.982 ± 0.011	1.04 ± 0.021	1.027 ± 0.0058	1.01 ± 0.01	0.993 ± 0.01
C[C@]12CCC(=O)C=C1CC[C@@H]1[C@@H]2C(=O)C[C@@]2(C)[C@H]1CC[C@]2(O)C(=O)CO [Cortisone]	1.007 ± 0.0058	1.01 ± 0.014	1.01 ± 0.011	1 ± 0.012	1.007 ± 0.0058	1.004 ± 0.01
